Sequences and labels used below:
B1: chr10:126015758:126015859:-|3pUTR|ENSG00000148848|msi1|total|mutant (ssRNA)
RNA: GGGAGUUCUACAGUCCGACGAUCAAAUACUCAGAUAAGGUAAAAUGCCAUGAUGCCUCUGUCUUCUGGACUGGUUUUCACAUCCGAAGACAAUUGACAACAGUUACAUAAUUCACUCUGAGUGUUUUAUGAGAAAGCCUUCUUCAACAGAGGAUUGAGCAUCA
B2: chr8:35759345:35759454:+|CDS|ENSG00000156687|unk|total|mutant (ssRNA)
RNA: GGGAGUUCUACAGUCCGACGAUCCAUCAAGGUGGACAGCUCCUGGAAGAACCAAAAUUGCUGCAUUUCAAAGGGAAUACCUUCCGUCUUCAGAUUUCUGUCCUUGAUAUUCCCCCAUUCCUCUGGAGAAUUAAACCAUUCACUCAACAGAGGAUUGAGCAUCA
B3: chr1:9614578:9614679:+|3pUTR|ENSG00000188807|msi1|total|mutant (ssRNA)
RNA: GGGAGUUCUACAGUCCGACGAUCUCCAGCUGCCAGCAAUGGUUCCAACUCGGAGGCAGCGCCUCUUGGUCCCCAUUUCUGUACCGCAGGCGUGUGUGUGUGUGUCGAGGUUUUUUAUUUUUUGCUUAAUCAAACUCCAUUCCCCAACAGAGGAUUGAGCAUCA
B4: chr7:116918052:116918157:+|3pUTR|ENSG00000198898|unk|FALSE|unique (ssRNA)
RNA: GGGAGUUCUACAGUCCGACGAUCUUUUCAUUUUGUUUGUUCUAAGAGGAUUGAAAAUCAGUUUAGUUUAAAUGUCUUUCUGUUAGGCCUUUCUUUCUUACAAUGAAGAGAUGAUUCUUCUAGUUUAUGGUUAAAAGUUUUUGACAACAGAGGAUUGAGCAUCA
B5: chr9:88129304:88129631:-|three_prime_utr|ENSG00000177910|control|control|control (ssRNA)
RNA: GGGAGUUCUACAGUCCGACGAUCGACCAAGGCACUGUCUUUUUCAGGGAGGUAUCUAAUUUGGUCAGUCACAAAUUCCUUUUUAGCCUUCCCUAGAGAAAAACAAGUCACCAAGAAAAAAUUCACUCUAUGUAGAGGAAAAGUCAACAGAGGAUUGAGCAUCA
B6: chr12:50748518:50748596:+|3pUTR|ENSG00000066084|msi1_unk|total|mutant (ssRNA)
RNA: GGGAGUUCUACAGUCCGACGAUCUCAAAUUCAAACUACAGUACUGUGUAAUUAUGUAUAAAGUUUUUUUAUUUAUUUGAAGUCCGACCCGAUAUACGUUUUUAAAUUUAACAUCUGGCUGGACAGUGUUCUAUUAACUCAUUGCAACAGAGGAUUGAGCAUCA
B7: chr11:43405833:43405939:+|CDS|ENSG00000052841|unk|total|mutant (ssRNA)
RNA: GGGAGUUCUACAGUCCGACGAUCGGCCCAAACCCCUGACUGUUCCAUAACUGACUUCAGAAAAAGCCACACUCUGUCCUACUCCGUCAAAGAAUCCGAGGUUCGCAUGGAUCUGAAAGCCAAAAUGCCAGAUGACCAUGCACGCAACAGAGGAUUGAGCAUCA
B8: chr2:32415736:32415837:+|CDS|ENSG00000115760|unk|FALSE|unique (ssRNA)
RNA: GGGAGUUCUACAGUCCGACGAUCGCAGAGGAAUGUUAGUGGUGGAUAUUUAGUGCUUUAUAAAAUGAAUUAUGCCACUCGGAUAGUGACUUUAGAAGAGGAGCCAAUAAAAAUACAACAUAUCAAAGAUCCCCAGGACACAAUCAACAGAGGAUUGAGCAUCA
B9: chr12:109450965:109451066:-|3pUTR|ENSG00000110906|msi1|FALSE|unique (ssRNA)
RNA: GGGAGUUCUACAGUCCGACGAUCGCCCGGGCACAAUCCCCACUGCUUUGCUAGACGUGCUUUCUGCCAUGUGGCUUUGGGCCUAGAGCUUGUUGAUAAUUGCAGCUUGUGGCAGUGGAAAUAUGGCUGAAUGAGCGUCUAAAUCAACAGAGGAUUGAGCAUCA
B10: ENSG00000182118:stop:overlap|stop_codon|ENSG00000182118|stop_codon|NA|stop_codon (ssRNA)
RNA: GGGAGUUCUACAGUCCGACGAUCGGGACUUGUCACUGCCUGUCUCCUCCCUCUCCAGCAGCGACUGGAUUCUGGAGUCCAUCUAGAGGGUCUUGGGAGGGAUGUGACUGUUGGGAAGCCCUUCCUACUGGACACGCUGUCAUCCAACAGAGGAUUGAGCAUCA
B11: chr22:35606763:35607296:-|three_prime_utr|ENSG00000198125|control|control|control (ssRNA)
RNA: GGGAGUUCUACAGUCCGACGAUCGCUCCCACCCCCACCCAUCUGGGCCCCGGGUUCAAGAGAGAGCGGGGUCUGAUCUCGUGUAGCCAUAUAGAGUUUGCUUCUGAGUGUCUGCUUUGUUUAGUAGAGGUGGGCAGGAGGAGCCAACAGAGGAUUGAGCAUCA
B12: chr2:216675988:216676089:-|3pUTR|ENSG00000115461|msi1|total|mutant (ssRNA)
RNA: GGGAGUUCUACAGUCCGACGAUCACUAAAAUGCAUUCCAUUCCUCUGAAAGCAAAACAAAUUCAUAAUUGAGUGAUAUUAAACCGAGAGGUUUUCGGAAGCAGAUCUGUGAAUAUGAAAUACAUGUGCAUAUUUCAUUCCCCACAACAGAGGAUUGAGCAUCA
B13: chr5:37007335:37007444:+|CDS|ENSG00000164190|unk|total|mutant (ssRNA)
RNA: GGGAGUUCUACAGUCCGACGAUCAGGCUUAUUAAGUUCAAAAGCAAAACGGGCUAAAUGUUCUACCCAUAAGCAGAGAGUAACCGUAAUGCUUUAUAACAAAGUUUGUGACAUUGUCCGCAGCUUAUCAGAAUUGCCCGAGAUCAACAGAGGAUUGAGCAUCA
B14: ENSG00000198589:be:win_9451|3pUTR|ENSG00000198589|bound_else_gene|NA|bound_elsewhere_windowed (ssRNA)
RNA: GGGAGUUCUACAGUCCGACGAUCUUAAACUAUCAUCUCCACCUUCCUUUUGAUUAGCAAUUUGUACUAAGAAACGAAACAAUGUUAUUUGGUGGUGUAUAAUUCUACUUUUCUAGUAGAUUACUGUGUGGAAUUCUGUGAAAACAACAGAGGAUUGAGCAUCA
B15: chr5:72990507:72990614:+|CDS|ENSG00000157107|unk|FALSE|unique (ssRNA)
RNA: GGGAGUUCUACAGUCCGACGAUCGUAUGGGAUGUAUUCAAAACAUCUACAGAGAAAUUAGCAAAUUGUCACUUGGAUCUUGUUAGAAAAUUACAAGAAUUAAUAAAGGAAGUUCAGAAGUAUGGAGAAGAACAAGUAAAGUCUCAACAGAGGAUUGAGCAUCA
B16: ENSG00000198589:be:win_5001|CDS|ENSG00000198589|bound_else_gene|NA|bound_elsewhere_windowed (ssRNA)
RNA: GGGAGUUCUACAGUCCGACGAUCACCGUCAGUUUCAGUUUCAAAAAACGUCAAUGUGAAAGACAUUCUCCGAAGCUUGGUUAACAUACCAGCAGAUGGAGUCACAGUGGAUCCUGCCCUUCUGCCACCAGCCUGCCUUGGAGCCAACAGAGGAUUGAGCAUCA
B17: ENSG00000107863:be:win_701|CDS|ENSG00000107863|bound_else_gene|NA|bound_elsewhere_windowed (ssRNA)
RNA: GGGAGUUCUACAGUCCGACGAUCCACCAGUACUGACACAACCUGGUAGGGCCUAUAGAAUGGAAAUACAAGUGCCUCCAUCACCAACAGAUGUUGCAAAAUCAAACACAGCAGUGUGUGUUUGCAAUGAAAGUGUAAGGACUGCAACAGAGGAUUGAGCAUCA
B18: chr7:40094668:40094770:+|CDS|ENSG00000065883|unk|total|mutant (ssRNA)
RNA: GGGAGUUCUACAGUCCGACGAUCGGAUAUGGAGACAUUUACCUCAAUGCUGGUCCCAUGUUGUUCCGUGGAGACAAGGACCACCGAUUUGAAUACCGCCAUGGUCCUAUUGCAGUCCUGGCAAACAGCAGUGACCCUUCCACGCAACAGAGGAUUGAGCAUCA
B19: chr13:45969211:45969312:-|CDS|ENSG00000123200|unk|FALSE|unique (ssRNA)
RNA: GGGAGUUCUACAGUCCGACGAUCGUCCCUGACCGUACAGAGGUGACAGAAGCAGAGCAUACUGCCACCGCCACGACUCCUGGUAGUACCCCUUCUCCUCUAUCUUCUCUUCUUCCUCCUCCACCGCCUGUGGCUACUGCCACUCAACAGAGGAUUGAGCAUCA
B20: chr1:235113809:235113910:-|CDS|ENSG00000173726|msi1_unk|FALSE|overlapping (ssRNA)
RNA: GGGAGUUCUACAGUCCGACGAUCAGGCUUUUCAGGUUACAUGUAAUUUUAUGUAAAUCUUACAGGUGAAUAUGAGAAGGGCGUAGACCAUCUGACAAAUGCAAUUGCUGUGUGUGGACAGCCACAGCAGUUACUGCAGGUCUUCAACAGAGGAUUGAGCAUCA
B21: chr13:32776882:32776983:+|3pUTR|ENSG00000083642|unk|total|mutant (ssRNA)
RNA: GGGAGUUCUACAGUCCGACGAUCAAAGUGUUUUGAAUUGUGUCUUAAUCUCUCCAUAUUCAACUAUUCUUCAUUUACAACAACCGUGACACCAGUAAUUAUGAGAGGCUGUCAUAUAUCAAAGCAGCUCAGGUGGGAUCAACACAACAGAGGAUUGAGCAUCA
B22: chr3:23980279:23980388:+|3pUTR|ENSG00000174738|unk|total|mutant (ssRNA)
RNA: GGGAGUUCUACAGUCCGACGAUCUUUUUCUUUUCCAAUAUAAAGUUUGCUGAAUGUACAAGAAGAGUUUAUCACUCCGGAUACCGAAUUUUUUCCGGGGUUGGGGGAGGGGAUCUGUCCGGAAACUGUUACCUAUAAACAAAGCAACAGAGGAUUGAGCAUCA

This is one part of the list.

This test has as its target MSI1 full-length (mouse, UniProt Q61474 1-362). Description: nsRBNS (natural sequence RNA bind-n-seq); RBNS binding buffer (assumed for nsRBNS): 25 mM Tris pH 7.5, 150 mM KCl, 3 mM MgCl2, 0.01% Triton X-100, 500 ug/ml BSA, 20 U/ml SUPERase-In, 4 C; UNK is unkempt and MSI1 is Musashi-1; names of the RNAs are library labels; protein concentration not given here; high values mean tight binding.
Chain of UniProt Q61474 (Q61474 whole entry): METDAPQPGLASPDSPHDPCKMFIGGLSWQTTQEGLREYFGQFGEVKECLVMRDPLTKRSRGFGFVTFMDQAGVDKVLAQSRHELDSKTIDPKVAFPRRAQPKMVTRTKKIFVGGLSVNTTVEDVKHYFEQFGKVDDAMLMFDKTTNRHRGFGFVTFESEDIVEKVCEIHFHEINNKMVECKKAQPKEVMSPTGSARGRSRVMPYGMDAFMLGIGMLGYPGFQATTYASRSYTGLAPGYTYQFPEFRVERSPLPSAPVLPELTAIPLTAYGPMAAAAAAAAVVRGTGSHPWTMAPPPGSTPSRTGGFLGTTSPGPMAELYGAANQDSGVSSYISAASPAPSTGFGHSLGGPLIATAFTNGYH
On to B1, for which the binding signal amounted to 0.199 enrichment R.
With B2 the figure was 0.284 enrichment R; with B3, 0.582 enrichment R; with B4, 11.9 enrichment R.
Regarding B5, the binding signal is 0.228 enrichment R.
As for B6, the figure is 1.59 enrichment R.
As for B7, the figure is 0.275 enrichment R; as for B8, 2.04 enrichment R; as for B9, 0.433 enrichment R.
B10: the binding signal was found to be 0.542 enrichment R.
As to B11, the binding signal stood at 1.64 enrichment R.
With B12 the figure was 0.271 enrichment R; with B13, 0.305 enrichment R.
Molecule B14 had a binding signal of 1.55 enrichment R.
As to B15, the binding signal turned out to be 9.04 enrichment R.
With B16 the figure was 0.331 enrichment R; with B17, 0.502 enrichment R; with B18, 0.291 enrichment R.
With B19 the figure was 1.07 enrichment R; with B20, 0.3 enrichment R.
For the molecule B21, the binding signal turned out to be 0.958 enrichment R.
Molecule B22 had a binding signal of 0.53 enrichment R.

Values taken from paper PMC12136788.
